Laboratory results reported in PubChem BioAssay AID504832 (National Center for Advancing Translational Sciences (NCATS), 2011).
Hit rate of the full screen: of about 310,000 compounds, about 18,000 (5.8%) were called active. The inconclusive results got no clear call from the source; some entries with a clear call stand among them for comparison. Calls follow the shape of the dose curve; as a rule, active = well fitted inhibition curve with a large enough effect; inconclusive = small, poorly fitted or top-dose-only effect, or another doubt; inactive = no such curve, though single readings can be large or run the other way. No potency is given beside an inconclusive call; the fits are too rough.
% is scaled to controls: 0 for no effect and ±100 for the full control effect; potency is read from the fitted curve at half-maximal effect; tags tell the direction and shape of the fitted curve.

Assay: Primary qHTS for delayed death inhibitors of the malarial parasite plastid, 48 hour incubation
Details: P. falciparum luciferase growth in erythrocytes; series mostly up to 28.7 µM; activity change, negative = inhibition: at the top concentration
Method in brief: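 A one-generation exposure of luciferase-tagged malaria parasites in RPMI 1640/Albumax erythrocyte culture, 37 C and 5% CO2. Inhibition is inferred from decreased luminescence after adding detection reagent.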
With `Nc1ccc2c(c1)Oc1ccccc1C=C2` the “activity change, negative = inhibition” value was inactive: 53.4%. In the case of `Cc1nc(N2CCC(C(N)=O)CC2)c2nnn(Cc3ccccc3)c2n1`, the Potency is reported as inconclusive [inhibitor, partial curve, poor fit]. In the case of `COc1ccc(-c2cc(C(=O)NCc3cn(C)nc3C)c3ccccc3n2)cc1OC`, the Potency is reported as inconclusive [inhibitor, single point]. For `COc1ccc(NC(=O)CSCC(=O)N2c3ccccc3CCc3ccccc32)cc1`, the Potency was inconclusive [inhibitor, partial curve, poor fit]. In the case of `CCOC(=O)C1CCN(C(=O)COC(=O)c2ccc([N+](=O)[O-])o2)CC1`, the Potency is reported as inconclusive [inhibitor, partial curve, poor fit]. In the case of `COc1ccc(NS(=O)(=O)c2ccc(-c3coc(C)n3)cc2)cc1`, the “activity change, negative = inhibition” value is reported as inactive: 0%. For `COc1ccc(NS(=O)(=O)c2ccc3nc(COc4cccc5ccccc45)[nH]c3c2)cc1`, the Potency was inconclusive [inhibitor, single point]. For `CCN(CC(=O)Nc1cc(Cl)ccc1OC)CC(=O)NC1CCS(=O)(=O)C1` (stereo not drawn), the “activity change, negative = inhibition” value was inactive: -10.3%. With `CNC(=S)N/N=C/c1cc(Br)cc(Br)c1O` the Potency was inconclusive [inhibitor, partial curve, poor fit]. For `CCOC(=O)c1sc(NC(=O)CN2C(=O)NC3(CC(C)CC(C)(C)C3)C2=O)cc1C` (stereo not drawn), the Potency was active: 2.62 µM. With `Cc1cccc(CS(=O)(=O)c2ncc(Cl)c(C(=O)Nc3nnc(C(C)C)s3)n2)c1` the Potency was inconclusive [inhibitor, full curve, poor fit]. In the case of `CCc1cc(SC#N)cc(CC)c1NC(=O)CCl`, the Potency is reported as active: 10.4 µM. In the case of `Cc1c(Cl)cccc1NC(=S)N(CCCN1CCOCC1)Cc1cccs1`, the Potency is reported as inconclusive [inhibitor, single point]. For `Cc1cccc(C)c1OCCOC(=O)c1n[nH]c2ccccc12`, the “activity change, negative = inhibition” value was inactive: -1.72%. For `O=C(CS(=O)(=O)Cc1ccccc1)NCc1ccco1`, the “activity change, negative = inhibition” value was inactive: 10.6%. With `Cc1nc(-c2cccc(S(=O)(=O)N3CC(C)CC(C)C3)c2)cs1` (stereo not drawn) the Potency was inconclusive [inhibitor, single point]. For `CCOc1ccc(NC(=O)Nc2cc(C)ccc2OC)cc1`, the Potency was inconclusive [inhibitor, single point]. With `COc1cc([N+](=O)[O-])c(OC)cc1SCc1n[nH]c(=S)n1-c1ccc(C)cc1` the “activity change, negative = inhibition” value was inactive: -6.03%. With `O=C(CN1C(=O)C2(OCCO2)c2ccccc21)c1ccc(Br)cc1` the Potency was inconclusive [inhibitor, single point]. In the case of `COc1ccc2ccccc2c1CNC(C)CCc1ccccc1` (stereo not drawn), the Potency is reported as inconclusive [inhibitor, single point]. For `COc1ccc2c(c1)CCc1c(C(=O)N3CC4(C)CC3CC(C)(C)C4)noc1-2` (stereo not drawn), the Potency was active: 14.7 µM. In the case of `COc1ccc(CCCc2nnc(SCc3nc4ccccc4c(=O)[nH]3)n2C)cc1`, the Potency is reported as inconclusive [inhibitor, partial curve, poor fit]. With `C=CCc1cc(C)ccc1OCCCn1ccnc1` the Potency was inconclusive [inhibitor, partial curve]. With `Cc1ccccc1CN1C(=O)c2ccccc2Sc2ccc(C(=O)NCCN3CCOCC3)cc21` the Potency was active: 8.28 µM. With `CC(c1nnc(SCC(=O)c2c(N)n(C3CC3)c(=O)[nH]c2=O)n1-c1ccc(F)cc1)N(C)C` (stereo not drawn) the “activity change, negative = inhibition” value was inactive: 1.27%. For `CC/C(=C\c1oc2cc3ccccc3cc2[n+]1CC)Nc1ccccc1`, the Potency was inconclusive [inhibitor, partial curve, poor fit]. For `Cc1ccc(CNC(=O)C2CCCN2C(=O)Nc2ccc(C)cc2)cc1` (stereo not drawn), the Potency was inconclusive [inhibitor, full curve, poor fit]. In the case of `CN(C)c1ccc(P(=O)(Nc2cccc(C(F)(F)F)c2)N2CCOCC2)c(NC(=O)c2cccs2)c1` (stereo not drawn), the Potency is reported as inconclusive [inhibitor, single point]. For `COc1cc(C)nc(N(Cc2ccccc2)S(=O)(=O)c2ccccc2)n1`, the Potency was inconclusive [inhibitor, single point]. In the case of `N#Cc1c(N)nc2c3c(sc(=N)c2c1N)NC(=O)CC3c1c(F)cccc1Cl` (stereo not drawn), the Potency is reported as inconclusive [inhibitor, single point]. In the case of `CCOC(=O)c1sc(NC(=O)/C=C/c2cnn(C)c2C)c(C(=O)OC(C)C)c1C`, the Potency is reported as inconclusive [inhibitor, single point]. In the case of `O=C(N/N=C/c1ccc(F)cc1)c1ccc(Br)cc1`, the “activity change, negative = inhibition” value is reported as inactive: 16.2%. For `CCOc1ccccc1NC(=O)Cc1coc2ccc(C)cc12`, the Potency was inconclusive [inhibitor, partial curve, poor fit]. With `CCn1nc(C)cc1C(=O)N1CCCC(N2CCN(c3cccc(Cl)c3)CC2)C1` (stereo not drawn) the Potency was inconclusive [inhibitor, partial curve, poor fit]. In the case of `NC(=O)C1CCCN(C(=O)c2ccc3nc(Cc4cccc(Cl)c4)oc3c2)C1` (stereo not drawn), the Potency is reported as inconclusive [inhibitor, partial curve, poor fit]. For `CCCn1nc2cc(C(=O)NCc3ccc4c(c3)OCO4)ccc2c1OCC`, the Potency was inconclusive [inhibitor, single point]. With `COc1ccc(N(CCCN2C(=O)c3cccc4cccc(c34)C2=O)C(=O)c2cccc(OC)c2)cc1` the Potency was inconclusive [inhibitor, partial curve, poor fit]. With `Cc1nc2cc(NC(=O)Nc3ccc(N4CCOCC4)cc3)ccc2n1C` the “activity change, negative = inhibition” value was inactive: -3.61%. For `CC(=O)C[C@H](O)CC(=O)[C@H]1OC(=O)CC/C=C\Cc2ccccc21`, the “activity change, negative = inhibition” value was inactive: 12%. With `COc1ccc(Cl)cc1NC(=S)NCCN1CCOCC1` the “activity change, negative = inhibition” value was inactive: -8.43%. In the case of `C=CCNC(=O)c1ccccc1NC(=O)c1ccc(Cl)c(S(=O)(=O)Nc2ccccc2)c1`, the Potency is reported as inconclusive [inhibitor, full curve, poor fit]. For `CC(C)n1cnc2c(=S)nc[nH]c21`, the Potency was inconclusive [inhibitor, partial curve, poor fit]. With `CCOC(=O)N1CCN(C(=O)CSc2nc(=O)n3cccc(C)c3n2)CC1` the “activity change, negative = inhibition” value was inactive: -0.362%. With `CCOC(=O)N1CCN(Cc2nc3cc(NC(C)=O)ccc3n2C)CC1` the “activity change, negative = inhibition” value was inactive: 19.6%. With `Brc1ccc(N/N=C(/N=Nc2nn[nH]n2)c2ccccc2)cc1` the Potency was active: 3.29 µM. In the case of `CCN1CCN(c2ccc(S(=O)(=O)N3CCOCC3)cc2NC(=O)c2ccc(C)c(C)c2)CC1`, the Potency is reported as inconclusive [inhibitor, single point]. In the case of `Cc1ncn(C23CC4CC(CC(C4)C2)C3)n1`, the Potency is reported as inconclusive [inhibitor, partial curve]. For `CSc1cccc(NC(=O)c2cccc3cccnc23)c1`, the “activity change, negative = inhibition” value was inactive: 128%. For `O=C(NNC(=O)c1cc(Br)c(Br)s1)c1ccncc1`, the “activity change, negative = inhibition” value was inactive: 10.5%. With `COc1ccc2oc(C(=O)OCC(=O)N(C)c3ccccc3)c(C)c2c1` the Potency was inconclusive [inhibitor, single point]. For `COc1ccc(/C=N/N=C2/NC(=O)CC(C(=O)O)S2)cc1` (stereo not drawn), the “activity change, negative = inhibition” value was inactive: 2.42%. For `COc1cccc(NC(=O)CCC2CCN(C(=O)c3cncs3)CC2)c1`, the Potency was inconclusive [inhibitor, single point]. With `C/C(=N\N=C(/N)SC1CC(=O)N(c2cccc(Cl)c2)C1=O)c1cccs1` (stereo not drawn) the Potency was inconclusive [inhibitor, single point]. With `COC(=O)c1cccc(Cn2c(Cl)c(/C=N/NC(=O)c3ccccc3Cl)sc2=O)c1` the Potency was inconclusive [inhibitor, partial curve]. In the case of `Cc1ccccc1CN1CCN(CC(=O)NCc2ccccc2)C1=O`, the “activity change, negative = inhibition” value is reported as inactive: -6.52%. With `COc1ccc(NC(=O)CNC(=O)c2nn(-c3ccc(OC)cc3OC)c(=O)c3ccccc23)c(OC)c1` the Potency was inconclusive [inhibitor, single point]. For `COc1cccc2c(SCC(=O)N/N=C/c3ccc(O)cc3O)cc(C)nc12`, the Potency was inconclusive [inhibitor, single point]. For `COc1ccc(C(=O)O/N=C(\N)c2ccc(Br)cc2)cc1`, the Potency was inconclusive [inhibitor, partial curve, poor fit]. For `O=c1c2ccccc2nc(SCc2cccc(F)c2)n1-c1cccc(S(=O)(=O)N2CCCC2)c1`, the Potency was inconclusive [inhibitor, single point]. With `O=c1[nH]ncc2c3ccccc3n(Cc3cccc(Cl)c3)c12` the Potency was inconclusive [inhibitor, single point]. In the case of `Clc1ccc(/C=C/c2nc(Cl)c(-c3ccc(Cl)cc3)c(Cl)n2)cc1`, the Potency is reported as inconclusive [inhibitor, partial curve, poor fit]. For `CCN(CC)S(=O)(=O)c1ccc(N/N=C(\C)c2ccncc2)nc1`, the Potency was inconclusive [inhibitor, partial curve, poor fit]. With `COc1ccc(-c2sc3ccc(OC)cc3c2C#Cc2ccccn2)cc1` the Potency was inconclusive [inhibitor, single point]. In the case of `COc1cccc(CN(C)C(=O)c2ccc(S(=O)(=O)Nc3ccccc3F)cc2)c1OC`, the Potency is reported as inconclusive [inhibitor, partial curve, poor fit]. In the case of `COc1ccc(-c2nnn(CC(=O)N(Cc3cccs3)C(C)C(=O)NCCC(C)C)n2)cc1OC` (stereo not drawn), the Potency is reported as inconclusive [inhibitor, single point]. For `CC(c1ccco1)N(C(=O)COc1ccc(Cl)cc1Cl)c1ccccn1` (stereo not drawn), the “activity change, negative = inhibition” value was inactive: -20.9%. In the case of `COc1ccc(NC(=S)N2CCN(S(=O)(=O)c3ccccc3)CC2)cc1`, the “activity change, negative = inhibition” value is reported as inactive: 8.62%. In the case of `COc1ccc(C(=O)Nc2ccnn2C2CCN(Cc3ccccn3)CC2)cc1`, the “activity change, negative = inhibition” value is reported as inactive: 27.8%.
